{
  "source": "patent US11685745B2",
  "about": "“Substituted benzoxazole and benzofuran compounds as PDE7 inhibitors” (Dart NeuroScience, LLC, priority 2017, dated 2023)",
  "data": [
    {"molecular_target": "N-terminal truncated recombinant human PDE7B enzyme (Homo sapiens (Human), UniProt Q9NP56)", "assay": "biochemical", "units": {"IC50": "nM"}, "values": [
      {"smiles": "O=C1Nc2c(Cl)cc3cc(C(=O)N4CCC4)oc3c2C2(CCCCC2)N1", "note": "[Example 235, 2′-(Azetidine-1-carbonyl)-5′-chloro-7′,8′-dihydro-6′H-spiro[cyclohexane-1,9′-furo[2,3-f]quinazoline]-7′-one]", "IC50": "10 to 100"},
      {"smiles": "O=C1Nc2c(Cl)cc3cc(C(=O)N(CC4CCC4)CC4CCCO4)oc3c2C2(CCCCC2)N1", "note": "(centres unmarked) [Example 356, 5′-Chloro-N-(cyclobutylmethyl)-7′-oxo-N-(oxolan-2-ylmethyl)-7′,8′-dihydro-6′H-spiro[cyclohexane-1,9′-furo[2,3-f]quinazoline]-2′-carboxamide]", "IC50": "10 to 100"},
      {"smiles": "O=C1Nc2c(Cl)cc3cc(C(=O)NCCc4ccco4)oc3c2C2(CCCCC2)N1", "note": "[Example 413, 5′-Chloro-N-[2-(furan-2-yl)ethyl]-7′-oxo-7′,8′-dihydro-6′H-spiro[cyclohexane-1,9′-furo[2,3-f]quinazoline]-2′-carboxamide]", "IC50": "10 to 100"},
      {"smiles": "O=C1Nc2c(Cl)cc3cc(CO)oc3c2C2(CCCCC2)N1", "note": "[Example 26, 5′-Chloro-2′-(hydroxymethyl)-6′H-spiro[cyclohexane-1,9′-furo[2,3-f]quinazolin]-7′(8′H) one]", "IC50": "10 to 100"},
      {"smiles": "CN(Cc1ccc2c(c1)OCO2)C(=O)c1cc2cc(Cl)c3c(c2o1)C1(CCCCC1)NC(=O)N3", "note": "[Example 457, N-(2H-1,3-Benzodioxol-5-ylmethyl)-5′-chloro-N-methyl-7′-oxo-7′,8′-dihydro-6′H-spiro[cyclohexane-1,9′-furo[2,3-f]quinazoline]-2′-carboxamide]", "IC50": "10 to 100"},
      {"smiles": "O=C1Nc2c(Cl)cc3nc(CCl)oc3c2C2(CCCCC2)N1", "note": "[Example 3, 5′-Chloro-2′-(chloromethyl)-6′H-spiro[cyclohexane-1,9′-oxazolo[5,4-f]quinazolin]-7′(8′H)-one]", "IC50": "100 to 1000"},
      {"smiles": "N#Cc1ccc(CNC(=O)c2cc3cc(Cl)c4c(c3o2)C2(CCCCC2)NC(=O)N4)cc1F", "note": "[Example 339, 5′-Chloro-N-[(4-cyano-3-fluorophenyl)methyl]-7′-oxo-7′,8′-dihydro-6′H-spiro[cyclohexane-1,9′-furo[2,3-f]quinazoline]-2′-carboxamide]", "IC50": "100 to 1000"},
      {"smiles": "O=C1Nc2c(Cl)cc3cc(C(=O)NCCN4CCc5ccccc54)oc3c2C2(CCCCC2)N1", "note": "[Example 293, 5′-Chloro-N-[2-(2,3-dihydro-1H-indol-1-yl)ethyl]-7′-oxo-7′,8′-dihydro-6′H-spiro[cyclohexane-1,9′-furo[2,3-f]quinazoline]-2′-carboxamide]", "IC50": "100 to 1000"},
      {"smiles": "Cc1cncc(CNC(=O)c2cc3cc(Cl)c4c(c3o2)C2(CCCCC2)NC(=O)N4)c1", "note": "[Example 344, 5′-Chloro-N-[(5-methylpyridin-3-yl)methyl]-7′-oxo-7′,8′-dihydro-6′H-spiro[cyclohexane-1,9′-furo[2,3-f]quinazoline]-2′-carboxamide]", "IC50": "10 to 100"},
      {"smiles": "O=C1Nc2c(Cl)cc3cc(CN4CCCC5(COC5)C4)oc3c2C2(CCCCC2)N1", "note": "[Example 505, 5′-Chloro-2′-{2-oxa-6-azaspiro[3.5]nonan-6-ylmethyl}-7′,8′-dihydro-6′H-spiro[cyclohexane-1,9′-furo[2,3-f]quinazoline]-7′-one]", "IC50": "100 to 1000"},
      {"smiles": "Cc1n[nH]c(C)c1CCN(C)Cc1cc2cc(Cl)c3c(c2o1)C1(CCCCC1)NC(=O)N3", "note": "[Example 546, 5′-Chloro-2′-({[2-(3,5-dimethyl-1H-pyrazol-4-yl)ethyl](methyl)amino}methyl)-7′,8′-dihydro-6′H-spiro[cyclohexane-1,9′-furo[2,3-f]quinazoline]-7′-one]", "IC50": "10 to 100"},
      {"smiles": "O=C1Nc2c(Cl)cc3cc(CN4CCS(=O)(=O)CC4)oc3c2C2(CCCCC2)N1", "note": "[Example 515, 4-{5′-Chloro-7′-oxo-7′,8′-dihydro-6′H-spiro[cyclohexane-1,9′-furo[2,3-f]quinazoline]-2′-ylmethyl}-thiomorpholine-1,1-dione]", "IC50": "100 to 1000"},
      {"smiles": "O=C1Nc2c(Cl)cc3cc(C(=O)NCc4cccc(F)c4)oc3c2C2(CCCCC2)N1", "note": "[Example 437, 5′-Chloro-N-[(3-fluorophenyl)methyl]-7′-oxo-7′,8′-dihydro-6′H-spiro[cyclohexane-1,9′-furo[2,3-f]quinazoline]-2′-carboxamide]", "IC50": "100 to 1000"},
      {"smiles": "COCCN(C)Cc1cc2cc(Cl)c3c(c2o1)C1(CCCCC1)NC(=O)N3", "note": "[Example 544, 5′-Chloro-2′-{[(2-methoxyethyl)(methyl)amino]methyl}-7′,8′-dihydro-6′H-spiro[cyclohexane-1,9′-furo[2,3-f]quinazoline]-7′-one]", "IC50": "100 to 1000"},
      {"smiles": "O=C1Nc2c(Cl)cc3cc(C(=O)NCc4ccncc4F)oc3c2C2(CCCCC2)N1", "note": "[Example 355, 5′-Chloro-N-[(3-fluoropyridin-4-yl)methyl]-7′-oxo-7′,8′-dihydro-6′H-spiro[cyclohexane-1,9′-furo[2,3-f]quinazoline]-2′-carboxamide]", "IC50": "10 to 100"},
      {"smiles": "CN(C)CCNC(=O)c1cc2cc(Cl)c3c(c2o1)C1(CCCCC1)NC(=O)N3", "note": "[Example 463, 5′-Chloro-N-[2-(dimethylamino)ethyl]-7′-oxo-7′,8′-dihydro-6′H-spiro[cyclohexane-1,9′-furo[2,3-f]quinazoline]-2′-carboxamide]", "IC50": "100 to 1000"},
      {"smiles": "O=C1Nc2c(Cl)cc3cc(C(=O)NCCCN4CCCC4=O)oc3c2C2(CCCCC2)N1", "note": "[Example 434, 5′-Chloro-7′-oxo-N-[3-(2-oxopyrrolidin-1-yl)propyl]-7′,8′-dihydro-6′H-spiro[cyclohexane-1,9′-furo[2,3-f]quinazoline]-2′-carboxamide]", "IC50": "10 to 100"},
      {"smiles": "O=C1Nc2c(Cl)cc3cc(C(=O)N4CCN(CCO)CC4)oc3c2C2(CCCCC2)N1", "note": "[Example 255, 5′-Chloro-2′-[4-(2-hydroxyethyl)piperazine-1-carbonyl]-7′,8′-dihydro-6′H-spiro[cyclohexane-1,9′-furo[2,3-f]quinazoline]-7′-one]", "IC50": "10 to 100"},
      {"smiles": "CCOC(=O)Cc1nc2cc(Cl)c3c(c2o1)C1(CCCCC1)NC(=O)N3", "note": "[Example 6, Ethyl 2-(5′-chloro-7′-oxo-7′,8′-dihydro-6′H-spiro[cyclohexane-1,9′-oxazolo[5,4-f]quinazolin]-2′-yl)acetate]", "IC50": "10 to 100"},
      {"smiles": "COC(=O)CN(C)Cc1nc2cc(Cl)c3c(c2o1)C1(CCCCC1)NC(=O)N3", "note": "[Example 127, Methyl 2-({5-chloro-7-oxo-7,8-dihydro-6H-spiro[[1,3]oxazolo[5,4-f]quinazoline-9,1′-cyclohexane]-2-ylmethyl}(methyl)amino)acetate]", "IC50": "10 to 100"},
      {"smiles": "CN(Cc1ccccn1)Cc1cc2cc(Cl)c3c(c2o1)C1(CCCCC1)NC(=O)N3", "note": "[Example 555, 5′-Chloro-2′-{[methyl(pyridin-2-ylmethyl)amino]methyl}-7′,8′-dihydro-6′H-spiro[cyclohexane-1,9′-furo[2,3-f]quinazoline]-7′-one]", "IC50": "100 to 1000"},
      {"smiles": "COCCc1nc2cc(Cl)c3c(c2o1)C1(CCCCC1)NC(=O)N3", "note": "[Example 21, 5′-Chloro-2′-(2-methoxyethyl)-6′H-spiro[cyclohexane-1,9′-oxazolo[5,4-f]quinazolin]-7′(8′H)-one]", "IC50": "10 to 100"},
      {"smiles": "CN(Cc1cc(C2CC2)[nH]n1)Cc1cc2cc(Cl)c3c(c2o1)C1(CCCCC1)NC(=O)N3", "note": "[Example 507, 5′-Chloro-2′-({[(5-cyclopropyl-1H-pyrazol-3-yl)methyl](methyl)amino}methyl)-7′,8′-dihydro-6′H-spiro[cyclohexane-1,9′-furo[2,3-f]quinazoline]-7′-one]", "IC50": "100 to 1000"}
    ]}
  ]
}
